# Out of some 420,000 compounds screened, about 50,000 (12%) were called active. This list was built around the results that the source calls inconclusive (neither active nor inactive); the mix of calls is not that of the screen. Calls follow the shape of the dose curve; as a rule, active = well fitted inhibition curve with a large enough effect; inconclusive = small, poorly fitted or top-dose-only effect; inactive = flat fitted curve, though single readings scatter. Potencies of inconclusive entries are left out as doubtful fits.
# Assay: qHTS for Inhibitors of human tyrosyl-DNA phosphodiesterase 1 (TDP1): qHTS in cells in presence of CPT; also: nearly all actives have a fitted effect of over 55% in size
# Conditions: chicken DT40 Tdp1-/-;hTDP1 cells + 20 nM CPT, ATP luminescence, 48 h; activity change, negative = growth inhibition: at 46.2 µM (top of the series) unless noted
# Outline: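 Chicken DT40 Tdp1-/- cells complemented with human TDP1, 400 cells/well, exposed to compounds plus 20 nM camptothecin for at least 48 h at 37 C; viability read as ATP content by CellTiter-Glo luminescence.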
# % is scaled to controls: 0 for no effect and ±100 for the full control effect; potency is read from the fitted curve at half-maximal effect; tags tell the direction and shape of the fitted curve.
Compound,Potency,"activity change, negative = growth inhibition"
CCOC(=O)c1ccc(NC(=O)c2csc3c2CCCCC3)cc1,active: 25.9 µM,
COc1cc(NC(=O)C(CC(C)C)NS(=O)(=O)c2ccc3c(c2)oc(=O)n3C)c(C(=O)O)cc1OC (stereo unspecified),inactive,
Cc1cc(C)c2c(SC(C)C)nc(N)nc2n1,"inconclusive [inhibitor, single point]",
CCN(CC)S(=O)(=O)c1ccc2c(c1)nc(CCC(=O)Nc1ccc(N3CCOCC3)cc1)n2C,inactive,
CCc1ccc(/C=C2\Oc3cc(OC(=O)N4CCOCC4)ccc3C2=O)cc1,"inconclusive [inhibitor, single point]",
Cc1ccc(CNS(=O)(=O)c2cc3c4c(c2)C(C)C(=O)N4CCC3)cc1 (stereo unspecified),"inconclusive [inhibitor, partial curve]",
CC1C(=O)N(Cc2cn(Cc3ccco3)nn2)CCS(=O)(=O)N1Cc1ccc(-c2ccc(Cl)cc2)cc1 (stereo unspecified),active: 18.4 µM,
O=C(Nc1ccc(S(=O)(=O)Nc2ncccn2)cc1)c1ccc(F)c(S(=O)(=O)N2CCOCC2)c1,"inconclusive [inhibitor, single point]",
CCOc1ccc(NC(=O)Cn2cc(C(=O)c3ccc(C)c(C)c3)c(=O)c3cc(OC)c(OC)cc32)cc1,inactive,
Cc1ccc(/C=N/Nc2nc3ccccc3[nH]2)s1,active: 14.6 µM,
O=C(CN1C(=O)COc2ccc(Cl)cc21)NC1CC1,inactive,
COC(=O)c1cc2oc3ccccc3c2n1CC(=O)N1CCCc2ccccc21,"inconclusive [inhibitor, single point]",
C[C@H]1NC(=O)[C@]2(C)[C@@H](c3ccccc3)[C@H]3COc4ccccc4[C@H]3N2C1=O,inactive,
O=C(N/N=C/c1cccc(F)c1)c1c(O)c2c([nH]c1=O)CCCC2,"inconclusive [inhibitor, single point]",
COc1ccc(C(C(=O)NC(C)(C)C)N(Cc2ccccc2)C(=O)CCC(=O)Nc2cc(C)on2)cc1 (stereo unspecified),"inconclusive [inhibitor, single point]",
CSc1ccc(CN2CCC(C)(Oc3cccc(C#N)c3)C2)cc1 (stereo unspecified),"inconclusive [inhibitor, single point]",
Cc1cc2nc(Sc3c([N+](=O)[O-])nc(C)n3Cc3ccccc3)[nH]c2cc1C,active: 7.31 µM,
COc1ccccc1/C=N/NC(=O)c1ccccc1Cl,inactive,
Cc1c(C)c2ccc(OCC(=O)N3CCN(c4cccc(Cl)c4)CC3)cc2oc1=O,"inconclusive [inhibitor, single point]",
COc1cccc(/C=N/Nc2nnc3c(n2)[nH]c2ccccc23)c1OC,"inconclusive [inhibitor, single point]",
CCOc1ccc(/C=N/OCC(=O)NC(c2ccccc2)c2ccccc2)cc1,inactive,
Cc1ccc(-n2ccnc(NCCc3ccc(S(N)(=O)=O)cc3)c2=O)cc1C,"inconclusive [inhibitor, single point]",
Cc1oc(-c2cccc(Cl)c2)nc1CSc1nc2ncccc2[nH]1,"inconclusive [inhibitor, single point]",
N#CC1=C(N)NC(SCC(=O)c2ccccc2)=C(C#N)C12CCCC2,"inconclusive [inhibitor, single point]",

Compound,Potency,"activity change, negative = growth inhibition"
CCC1CCCCN1C(=O)CSc1nc2c([nH]c3ccccc32)c(=O)n1-c1cccc(OC)c1 (stereo unspecified),"inconclusive [inhibitor, single point]",
COc1cc(NC(=O)c2ccnc(N)c2)cc(C(=O)Nc2cccc(C(F)(F)F)c2)c1,active: 23.1 µM,
Cc1cccc(C)c1NC(=O)C(C)N1CCCC1 (stereo unspecified),,inconclusive: -30.8% [inhibitor]
COc1ccc(S(=O)(=O)Nc2nnc(C)s2)cc1,inactive,
O=C(NCC1CCCO1)c1cccc(NS(=O)(=O)c2ccc(Br)cc2)c1 (stereo unspecified),inactive,
COc1ccc(CCn2c3c(c(=O)[nH]c2=O)C(NC(=O)c2ccccc2OC)(C(F)(F)F)C(=O)N3)cc1OC (stereo unspecified),inactive,
COc1ccc(CNC(=O)CC[C@H]2O[C@@H](n3cc(C)c(=O)[nH]c3=O)C[C@@H]2O)cc1,inactive,
CCOC(=O)C1CCCN(C2CC(=O)N(c3ccc(C(C)C)cc3)C2=O)C1 (stereo unspecified),"inconclusive [inhibitor, single point]",
Cc1noc(C)c1COc1ccccc1C(=O)NC(C)c1ccc(F)cc1 (stereo unspecified),"inconclusive [inhibitor, partial curve, poor fit]",
Cc1cccc(C)c1NC(=O)CN(C)C(=O)c1ccccc1Cc1ccccc1,"inconclusive [inhibitor, partial curve]",
COc1cc(C(=O)Nc2ccc(NC(=O)c3ccc(Br)cc3)cc2)cc(OC)c1OC,inactive,
Cc1cc(Cl)c(S(=O)(=O)Nc2ccc3c(c2)OCCO3)cc1OCC(=O)NC1CCCCC1,"inconclusive [inhibitor, single point]",
COc1ccc(NC(=O)c2ccc(-c3ccccc3C(F)(F)F)o2)cc1,"inconclusive [inhibitor, partial curve, poor fit]",
CC(C)Cc1cc(C(=O)O)n[nH]1,inactive,
CCOC(=O)[C@]12CCCC=C1N(Cc1cccc3ccccc13)C(=O)[C@H](CC(=O)N1CCOCC1)C2,"inconclusive [inhibitor, single point]",
Cc1ccc([N+](=O)[O-])cc1S(=O)(=O)N1CCCC1,inactive,
O=C(NCc1ccncc1)C12CC3CC(CC(Cl)(C3)C1)C2,inactive,
CC(C)Cc1nnc(NC(=O)C2CSC3(C)CCC(=O)N23)s1 (stereo unspecified),inactive,
Cc1cccc(N2CCN(C(=O)c3cc4c(=O)n(C)c5ccccc5c4s3)CC2)c1C,"inconclusive [inhibitor, single point]",
CCOCc1cnc(C)nc1NCC(=O)c1c(C)n(C)c2ccc(OC)cc12,"inconclusive [inhibitor, partial curve]",
Cc1cc(C)nc(NCc2ccc(Cl)cc2)n1,inactive,
CCCN(CCC)c1ccc(/C=C/c2ccnc3ccccc23)cc1,active: 7.08 µM,
O=C(NCCN1CCC(n2c(=O)[nH]c3ccccc32)CC1)c1ccc(F)c(C(F)(F)F)c1,"inconclusive [inhibitor, single point]",
Cc1ccc(NC(=O)[C@@H]2O[C@H](CO)[C@H](O)[C@H](O)[C@H]2O)cc1C(F)(F)F,inactive,

Compound,Potency,"activity change, negative = growth inhibition"
COc1ccc(CNCC(O)COc2cccc3c2OC(C)(C)C3)cc1 (stereo unspecified),active: 9.2 µM,
COc1cc2c(cc1OC)C(c1cccc(Br)c1)NC(=O)C2 (stereo unspecified),inactive,
COC(=O)c1ccc(NC(=O)CN(Cc2ccc(Cl)cc2)S(C)(=O)=O)cc1,,inconclusive: -40.8% [inhibitor]
COc1cc(CC(=O)OCC(=O)c2ccc[nH]2)cc(OC)c1OC,"inconclusive [inhibitor, single point]",
NC(=O)c1ccccc1NC(=O)CCn1c(=S)oc2ccccc21,"inconclusive [inhibitor, partial curve]",
COc1cc(CN2C[C@@H](CO)O[C@@H](n3cnc4c(NCc5ccc(F)cc5)ncnc43)C2)cc(OC)c1OC,active: 16.4 µM,
COc1ccccc1OCCn1cc(C(=O)c2ccco2)c2ccccc21,"inconclusive [inhibitor, single point]",
CCOC(=O)C1CCN(c2nc3c(S(=O)(=O)c4ccc(CC)cc4)nnn3c3ccc(Cl)cc23)CC1,"inconclusive [inhibitor, single point]",
CC1(C)CC(=O)C2=C(C1)NC1=C(C(=O)c3ccccc31)C2c1cccnc1 (stereo unspecified),"inconclusive [inhibitor, single point]",
Cc1cccn2c(=O)c3cc(C(=O)NC(C)(C)C)n(C)c3nc12,"inconclusive [inhibitor, single point]",
COc1ccc(C)cc1-n1nnnc1SCc1nc(N)nc(N(C)C)n1,active: 4.61 µM,
CCOC(=O)C(CC(=O)c1ccccc1)CC(=O)c1ccccc1,"inconclusive [inhibitor, single point]",
CCOC(=O)C1CCc2nc3ccccc3c(=O)n21 (stereo unspecified),inactive,
Cc1cc(Cl)ccc1NC(=O)CS(=O)(=O)c1cccc2nsnc12,,inconclusive: -35.6% [inhibitor]
Cc1cc(F)ccc1S(=O)(=O)N1CCCCC1CCNC(=O)C(=O)NCCN1CCOCC1 (stereo unspecified),"inconclusive [inhibitor, single point]",
COc1cccc(S(=O)(=O)NCC(=O)Nc2ccc(C(C)(C)C)cc2)c1,"inconclusive [inhibitor, single point]",
COc1ncc(C2=CC(=O)CC(C)(C)C2)cn1,inactive,
O=C(c1ccc(N2CCOCC2)c([N+](=O)[O-])c1)N1CCN(c2ccccc2)CC1,"inconclusive [inhibitor, partial curve]",
Cc1nc2ccccc2c(=O)n1NCc1cc(Br)cs1,"inconclusive [inhibitor, single point]",
C=CCC1(CC=C)CCCN1C(=O)c1ccc2oc(CCCC)nc2c1,active: 11.6 µM,
CC(=O)CCc1oc2c([N+](=O)[O-])cccc2c1-c1ccc(C)o1,"inconclusive [inhibitor, single point]",
CCn1cc(CN2CCc3c([nH]c4ccccc34)C2c2ccc(F)c(OC)c2)c(C)n1 (stereo unspecified),"inconclusive [inhibitor, single point]",
CCOc1ccc(CCN2C(=O)C(=O)N([C@@H](Cc3ccccc3)CN3CCC[C@@H]3CN3C(=O)C(=O)NC[C@@H]3Cc3ccc(O)cc3)C[C@@H]2Cc2ccccc2)cc1,inactive,
